Experimental data reported in article PMC4336329 (PLoS ONE, 2015).
Screen size: about 310,000 compounds; about 14,000 (4.5%) showed an effect of 50% or more. Effects have a minus sign here. The list shows a part of the results. Where a SMILES comes first, the peptide text is derived from it. The star is where a group is joined. Boc = CC(C)(C)OC(=O)*; OtBu = CC(C)(C)O*; tBu = CC(C)(C)*

biological target: human ether-à-go-go-related gene (hERG) potassium channel (human, UniProt Q12809); test: primary screen, population patch clamp on CHO cells stably expressing hERG
Sequence (Q12809 whole entry, looked up): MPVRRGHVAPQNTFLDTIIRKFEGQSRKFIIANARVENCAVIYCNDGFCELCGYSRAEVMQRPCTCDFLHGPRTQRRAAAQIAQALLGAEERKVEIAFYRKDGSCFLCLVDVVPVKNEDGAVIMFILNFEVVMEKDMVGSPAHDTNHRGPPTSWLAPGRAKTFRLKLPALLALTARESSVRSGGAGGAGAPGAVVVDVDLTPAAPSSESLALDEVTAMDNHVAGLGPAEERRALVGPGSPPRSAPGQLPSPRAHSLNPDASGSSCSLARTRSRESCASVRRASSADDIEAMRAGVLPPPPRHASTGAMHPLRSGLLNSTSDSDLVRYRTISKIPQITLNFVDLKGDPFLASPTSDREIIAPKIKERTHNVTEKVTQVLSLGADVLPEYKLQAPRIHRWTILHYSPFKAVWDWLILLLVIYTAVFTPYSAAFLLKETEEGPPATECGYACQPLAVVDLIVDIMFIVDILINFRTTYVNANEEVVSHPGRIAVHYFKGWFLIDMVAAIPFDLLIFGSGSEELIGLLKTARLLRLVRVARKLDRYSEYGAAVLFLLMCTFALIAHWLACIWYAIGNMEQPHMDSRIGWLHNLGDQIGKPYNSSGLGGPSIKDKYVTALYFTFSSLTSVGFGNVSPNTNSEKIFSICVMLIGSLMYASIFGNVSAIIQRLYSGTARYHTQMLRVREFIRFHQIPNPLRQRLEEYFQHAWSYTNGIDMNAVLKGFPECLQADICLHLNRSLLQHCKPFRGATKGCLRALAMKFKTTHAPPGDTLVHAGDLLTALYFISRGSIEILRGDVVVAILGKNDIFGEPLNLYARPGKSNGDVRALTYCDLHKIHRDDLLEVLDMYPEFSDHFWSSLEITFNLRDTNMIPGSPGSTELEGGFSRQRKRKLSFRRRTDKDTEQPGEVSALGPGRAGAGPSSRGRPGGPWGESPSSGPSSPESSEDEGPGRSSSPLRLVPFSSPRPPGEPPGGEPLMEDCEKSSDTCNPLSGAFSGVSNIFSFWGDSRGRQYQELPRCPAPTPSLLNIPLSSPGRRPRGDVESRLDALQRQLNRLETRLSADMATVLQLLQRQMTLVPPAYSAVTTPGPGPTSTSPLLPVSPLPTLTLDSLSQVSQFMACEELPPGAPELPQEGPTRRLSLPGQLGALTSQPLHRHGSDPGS
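Further: peak tail current of the secondary pulse compared with the same well before compound.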

Row | SMILES | hERG current change (%, negative = inhibition) at 10uM
1 | Cc1cc(Cl)ccc1OC(C)C(=O)NCCCCc1ccccc1 (centres unmarked) | 1.86%
2 | COc1cc(OC)c(NC(C)C(=O)N2CCCC2)cc1Cl (centres unmarked) | 26.9%
3 | Fc1ccc(-c2nc3c(-c4ccc(Cl)cc4)cnn3cc2CCN2CCOCC2)cc1 | 20.2%
4 | CCN(CC(=O)Nc1ccc(NC(C)=O)cc1)C(=O)c1ccc2c(c1)OCCO2 | 0.98%
5 | CCN(CC)C(=O)CCn1nc(-c2ccc(C)cc2)c2ccccc2c1=O | -28.4%
6 | COC(=O)C1=C(C)NC(C)=C(C(=O)OC)C1C(=O)OC(C)C(=O)c1ccccc1 (centres unmarked) | -16.6%
7 | Cc1cc(S(=O)(=O)NCc2ccccn2)c(Cl)cc1Cl | 7.26%
8 | NC(=O)C1CC(=O)N(c2ccc(OCc3ccc(Cl)cc3)cc2)C1 (centres unmarked) | -0.277%
9 | N/C(=N\OC(=O)c1cccs1)c1cccc([N+](=O)[O-])c1 | 17.2%
10 | CCOc1ccc(OCC(=O)OC(C)C(=O)Nc2ccc(Cl)cn2)cc1 (centres unmarked) | -42%
11 | Cc1cc(-n2c(C)cc(C(=O)CSc3nnc4sc5ccccc5n34)c2C)no1 | -7.19%
12 | CCSc1nnc(NC(=O)Cc2ccccc2OC)s1 | 13%
13 | CC(=O)Nc1ccc(S(=O)(=O)NCc2ccc(C(=O)NCCCN3CCC(C)CC3)cc2)cc1 | 19.7%
14 | CC(NCc1ccc(F)cc1)C(=O)NC1CCCCC1.O=C(O)C(=O)O (centres unmarked) | 9.88%
15 | Cc1ccc(NS(=O)(=O)c2ccc(C(=O)NCC(c3ccco3)N3CCCCC3)cc2)cc1 (centres unmarked) | -7.6%
16 | O=C(CCc1ccccc1)Nc1cc(NC(=O)CCc2ccccc2)cc(C(=O)O)c1 | -22%
17 | O=C(Cc1cccs1)Nc1cccc(C(=O)Nc2ccc(C(=O)O)cc2)c1 | 6.12%
18 | CC(C)OC(=O)c1cccnc1N1CCN(c2ccc(F)cc2)CC1 | 8.68%
19 | Cc1cc(NC(=S)N(Cc2ccc(Br)cc2)Cc2ccc(C(=O)O)cc2)ccc1Cl | 34.6%
20 | CN1CCN(NC(=O)Nc2cccc(Cl)c2Cl)CC1 | 14.1%
21 | O=C(Nc1ccc(O)c2c(=O)cc(-c3cccc(Cl)c3)oc12)c1ccccc1Cl | -15.6%
22 | CC(Cc1cccs1)NC(=O)c1cccc(Cl)c1 (centres unmarked) | -20.9%
23 | COc1ccccc1CNC(=O)c1ccc2c(=O)n(CCCN3CCCC3=O)c(=S)[nH]c2c1 | 0.0134%

Row | SMILES | hERG current change (%, negative = inhibition) at 10uM
24 | O=C(Nc1ccccc1N1CCOCC1)c1ccc(S(=O)(=O)NCc2ccco2)cc1 | -15.7%
25 | CC(C)n1nc(C(=O)NNC(=O)c2ccc(OC(F)F)cc2)c2ccccc2c1=O | -76.3%
26 | CCCN(CC1CC1)C(=O)COc1ccccc1C(=O)NCc1ccccc1 | -56%
27 | COc1cccc2c(=O)n(CC(=O)Nc3ccccc3F)ccc12 | 3.76%
28 | CCN(CC)CCCN=C(N)N.O=S(=O)(O)O | 9.04%
29 | N#Cc1nc(-c2cccs2)oc1NCc1ccc2c(c1)OCO2 | -10%
30 | CC1CN(C(=S)Nc2cccc(Cl)c2Cl)CC(C)O1 (centres unmarked) | -0.96%
31 | CCCNC(=O)c1ccc2snnc2c1 | -3.1%
32 | CCOC(=O)/C(C(=O)Nc1ccccc1Br)=C1/NC(C)(C)Cc2ccccc21 | -3.65%
33 | O=C(NCCCn1ccnc1)C(=O)NCC1OCCCN1S(=O)(=O)c1ccccc1 (centres unmarked) | 19.9%
34 | O=c1c2cnn(-c3ccccc3)c2ncn1CCc1ccccc1 | 11.8%
35 | Cl.Fc1ccc(-c2ccc(CNCc3ccccn3)o2)cc1Cl | -34.9%
36 | CC(C)(C)n1ncc(Oc2ccccc2[N+](=O)[O-])c(Cl)c1=O | -9.62%
37 | COCCNC(=O)C(c1c[nH]c2ccccc12)N(C(=O)c1snc(C(N)=O)c1N)c1cccc(OC)c1 (centres unmarked) | 13.9%
38 | Cc1cc(C)n2c(SCC(C)C)nnc2n1 | 13.3%
39 | CC(=O)N1CCN=C1SCc1cccc(C(F)(F)F)c1 | -22.9%
40 | COc1ccc(-c2nc(C#N)c(NCc3ccccc3Cl)o2)cc1 | 3.52%
41 | CCN(CC(=O)Nc1c(F)cccc1F)C(=O)CNC(=O)C1CCCCC1 | -0.699%
42 | CSc1ccc(CCNC(=O)CCc2nnc3ccc(N4CCCC4)nn23)cc1 | -3.45%
43 | Cc1csc2ncc(C(=O)NCCC(c3ccccc3)c3ccccc3)c(=O)n12 | -0.968%
44 | CCN(CCn1cccn1)C(=O)CCc1nnc(-c2ccccc2)o1 | 12%
45 | COc1cccc(COCC(O)CN2CCC(C(N)=O)CC2)c1 (centres unmarked) | 12.3%
46 | Cc1ccc2nc(NC(=O)C3CCCN(S(=O)(=O)c4cnc[nH]4)C3)sc2c1 (centres unmarked) | -10.1%

Row | SMILES | hERG current change (%, negative = inhibition) at 10uM
47 | Cc1cc(N/N=C/c2ccccc2O)nc(N2CCOCC2)n1 | 6.96%
48 | CN1CCN(/C=N/C2=C(C#N)C(c3ccccc3)C3=C(CC(C)(C)CC3=O)O2)CC1 (centres unmarked) | -17.6%
49 | O=C(O)c1cc2ncc(CCO)cn2n1 | 22.1%
50 | Clc1ccc(OCc2cn3ccccc3n2)c2ncccc12 | -30.1%
51 | CC(=O)N1CCc2cc(Br)cc(S(=O)(=O)NCCCN(C)Cc3ccccc3)c21 | -38.3%
52 | Cc1nnc(SCC(=O)Nc2ccc3c(c2)OCO3)n(N)c1=O | 11.3%
53 | COc1ccc(/C=N/NC(=O)CN(C)C(=O)OCc2ccccc2)cc1OC | 9.1%
54 | CCN1CCN(c2cn[nH]c(=O)c2Cl)CC1 | 21.4%
55 | COc1cccc(/C=C/C(=O)c2c(O)cc(C)oc2=O)c1O | 17.7%
56 | CC(OC(=O)Cc1ccsc1)C(=O)Nc1ccc(Cl)cn1 (centres unmarked) | -1.88%
57 | COc1ccc(NC(=O)CN(C)C(=O)c2cc(-c3ccccc3)nc3ccccc23)cc1 | -21.4%
58 | Cc1c(N=C2C(=O)Nc3ccccc32)c(=O)n(-c2ccccc2)n1C | 21.3%
59 | Cc1noc(C)c1COc1ccc(C(=O)NNC(=O)c2ccccc2)cc1 | 11.5%
60 | O=C(O)C1CCC(CNCc2ccncc2)CC1 (centres unmarked) | 18.8%
61 | CCOC(=O)C1=C(C)NC(=O)NC1/C=C/c1ccccc1 (centres unmarked) | -2.72%
62 | COc1ccc(COc2ccsc2C(=O)Nc2ccc(Cl)cc2)cc1 | 7.17%
63 | N#Cc1ccccc1COC(=O)c1cccnc1N | 12.6%
64 | CCn1c(CC(=O)Nc2ccc(F)cc2)nnc1SCC(=O)N1CCOCC1 | 11.1%
65 | C=CCc1ccc(OCCOc2cccc(/C=N/n3cnnc3)c2)c(OC)c1 | -26.2%
66 | O=S(=O)(NN=C1CCCCC1)c1ccccc1 | 16%
67 | CC1(C)CC(=O)C(N=Nc2ccc(OC(F)F)cc2)=C(O)C1 | -57.6%
68 | COc1ccc2[nH]c(=O)c(CNc3ccccc3OC)cc2c1 | -7.66%
69 | CC(C)(C)OCC(NC(=O)C(CC(N)=O)NC(=O)OC(C)(C)C)C(=O)OC(C)(C)C (stereo not drawn) (Boc-Asn-Ser(tBu)-OtBu; configuration not given here) | 2.53%

Row | SMILES | hERG current change (%, negative = inhibition) at 10uM
70 | CCCCC(=O)Nc1ccc(C(=O)Nc2nc(CC(=O)OCC)cs2)cc1 | -18.2%
71 | COc1ccc2sc(-c3ccc(N(C)C)cc3)c(-c3cnc(OC)nc3)c2c1 | 17.5%
72 | CC(=O)OC1c2ccccc2C(=O)N1Cc1ccccc1Cl (centres unmarked) | -7.25%
73 | COc1ccc2c(c1)C(=NN)c1cc(OC)ccc1-2 | 11.5%
74 | COc1ccc(NC(=O)C2=C(C)NC(=O)NC2c2cccs2)c(OC)c1 (centres unmarked) | 17.2%
75 | O=c1[nH]c2c(s1)C=Nc1ccccc1N2 | 13.2%
76 | Cn1cc([N+](=O)[O-])c(C(=O)Nc2ccc(-c3nc4ccccc4[nH]3)cc2)n1 | 12.2%
77 | CCC(C)N(C(=O)COC(=O)C1C(C(=O)OC)=C(C)NC(C)=C1C(=O)OC)C1CCS(=O)(=O)C1 (centres unmarked) | 4.61%
78 | CCCOc1ccc(C(=O)OCC(=O)c2c(N)n(C)c(=O)n(C)c2=O)cc1OC | 15.8%
79 | Cc1c(/C=N/Nc2nc3ccccc3[nH]2)c2ccccc2n1C | -6.23%
80 | CSCCC(C(=O)OC1CCOC1=O)N1C(=O)c2ccccc2C1=O (centres unmarked) | 7.22%
81 | CN(CC(=O)Nc1c(Cl)cccc1Cl)C(=O)c1n[nH]c2ccccc12 | -6.33%
82 | O=S(=O)(Cc1ccccc1)Nc1ccccc1 | 16%
83 | O=C(Nc1cccc(Cl)c1)Nc1ccccc1C(=O)NCc1ccco1 | 8.62%
84 | COC1=C/C(=C/c2c(N)n3cc(C)sc3nc2=O)C=CC1=O | -0.0296%
85 | O=C(NCC1CCN(S(=O)(=O)c2ccccc2)CC1)Nc1ccc(F)cc1 | -1.58%
86 | O=C(COC(=O)c1ccccc1NCCO)NCC1CCCCC1 | -8.14%
87 | O=C(CCNC(=O)c1ccco1)Nc1ccc(OC(F)F)cc1 | -23.8%
88 | CCOc1cc(/C=C/c2nc3ccccc3c(=O)[nH]2)ccc1O | 13.4%
89 | CCC(=O)Oc1ccc2c(c1)O/C(=C\c1ccco1)C2=O | 16.7%
